# Data reported in PubChem BioAssay AID651820 (National Center for Advancing Translational Sciences (NCATS), 2012).
# In all, about 340,000 compounds went through this assay and about 12,000 (3.5%) were called active. The inconclusive results got no clear call from the source; some entries with a clear call stand among them for comparison. Calls come from the whole dose curve; as a rule, active = well fitted inhibition curve with a large enough effect; inconclusive = small, poorly fitted or top-dose-only effect, or another doubt; inactive = no such curve, though single readings can be large or run the other way. No potency is given beside an inconclusive call; the fits are too rough.
# Test: qHTS Assay for Inhibitors of Hepatitis C Virus (HCV)
# Conditions: Huh7.5.1 HCVcc-Cre (HCVcc is cell-culture hepatitis C virus) infection, luciferase reporter, 44 h; series mostly up to 41.8 µM
# Method in brief: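 Luciferase read-out (15 sec integration) after a 15 min room-temperature substrate step quantifies HCVcc-Cre infection. Cells, 1,000 per well, had compound added 4 h post-plating, then virus at ~0.5 moi, and were cultured 44 h.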
# Potency is the fitted concentration of half-maximal effect; tags give direction and shape of the fitted curve.
row,SMILES,Potency
1,CCN1CCc2c(OCC(=O)N3CCCc4ccccc43)cccc2C1=O,"inconclusive [inhibitor, single point]"
2,CCOc1ccc(N(CC(=O)Nc2ccc(OC)cc2)C2=NC3CS(=O)(=O)CC3S2)cc1 (stereo not given),inactive
3,CCCCn1c(N)c(N(CCC(C)C)C(=O)COC(=O)c2ccc([N+](=O)[O-])s2)c(=O)[nH]c1=O,"inconclusive [inhibitor, single point]"
4,COc1ccc(Cl)cc1NC(=O)c1ccccc1C,"inconclusive [inhibitor, full curve]"
5,CC(C)(C)NCC(O)CON=C1c2ccccc2-c2ccccc21 (stereo not given),active: 25.1 µM
6,COCCNc1ncnc2nc[nH]c12,inactive
7,Cc1nn(C)c(C)c1CN(C)C(=O)c1cc2n(n1)C(C(F)(F)F)CC(c1cccs1)N2 (stereo not given),"inconclusive [inhibitor, partial curve, poor fit]"
8,CCCCn1c(SCC(=O)NC2CCCC2)nc2ccccc2c1=O,inactive
9,CC(=O)Nc1sc2c(c1C#N)CCC2,inactive
10,Cn1c(Oc2ccccc2)c(C=O)c2ccccc21,"inconclusive [inhibitor, partial curve]"
11,CCOc1cc(NC(=S)Nc2ccccc2OC)c(OCC)cc1NC(=O)c1ccccc1C,"inconclusive [inhibitor, partial curve]"
12,Cc1cccc(C)c1OCC(=O)NC1CC1,inactive
13,Cc1ccc(C)c(N(CC(=O)NCc2ccco2)C(=O)CCC(=O)Nc2nccs2)c1,inactive
14,CCOc1cc(N2CCOCC2)c(OCC)cc1NC(=O)CN1C(=O)NC(CC(C)C)C1=O (stereo not given),"inconclusive [inhibitor, single point]"
15,COc1ccccc1NC(=O)c1cn(C)c(=O)c2cc(OC)c(OC)cc12,inactive
16,CCN1CCC2(CC1)N=C(c1ccc(F)cc1)C(=S)N2C(=O)c1ccc(C(C)(C)C)cc1,"inconclusive [inhibitor, single point]"
17,CC(C)CCN1CCN(Cc2ccc(C#CC(C)(C)O)s2)CC1CCO (stereo not given),inactive
18,CN(CC(=O)Nc1ccccc1Cl)CC(=O)Nc1sc2c(c1C(N)=O)CCC2,"inconclusive [inhibitor, single point]"
19,O=c1[nH]c(=O)n([C@H]2C[C@H](O)[C@@H](CO)O2)cc1F,"inconclusive [inhibitor, single point]"
20,CCC(C)N1C(=O)/C(=C/c2c(NCCCOC(C)C)nc3c(C)cccn3c2=O)SC1=S (stereo not given),"inconclusive [inhibitor, partial curve]"
21,Cc1cc(C(=O)CSc2nnnn2-c2ccc(O)cc2)c(C)n1Cc1ccc2c(c1)OCO2,"inconclusive [inhibitor, single point]"
22,CCN(CC(=O)NCc1cccs1)C(=O)/C=C/c1ccc(OC)cc1OC,active: 20 µM
23,O=c1c2c(-c3ccc([N+](=O)[O-])cc3)csc2nc2n1CCC2,inactive

row,SMILES,Potency
1,CCCOc1ccccc1/C=C1\SC(N2CCCCC2)=NC1=O,active: 10 µM
2,Cc1c(-c2cccc(NC(=O)c3ccco3)c2)nc2ncccn12,"inconclusive [inhibitor, single point]"
3,CC1(C)NC(=O)N(CC(=O)Nc2ccc(-n3cnnn3)cc2)C1=O,inactive
4,COCCCn1c(N)c(-c2nc3ccccc3n2C)c2nc3ccccc3nc21,"inconclusive [inhibitor, single point]"
5,Oc1ccccc1-c1cc(-c2ccc(Cl)cc2)n[nH]1,"inconclusive [inhibitor, single point]"
6,COc1ccc(NC(=O)c2cc([N+](=O)[O-])ccc2O)cc1,"inconclusive [inhibitor, single point]"
7,CNc1ncnc2sc(-c3ccccc3)cc12,"inconclusive [inhibitor, single point]"
8,O=C(O)c1ccc(S(=O)(=O)NC2CCCc3ccccc32)cc1 (stereo not given),"inconclusive [inhibitor, single point]"
9,Fc1ccc(C2C3=C(Nc4ncnn42)c2ccccc2OC3c2ccncc2)cc1 (stereo not given),"inconclusive [inhibitor, single point]"
10,CN1CCc2c(C#N)c(N3CCCCC3)nc(NCc3ccccc3)c2C1,"inconclusive [inhibitor, partial curve, poor fit]"
11,COc1cnc(-c2ccccn2)nc1Oc1ccc(Cl)c2ccccc12,"inconclusive [inhibitor, single point]"
12,Cc1c(-c2c(C#N)c(N)nc3c2CCCCCC3)cnn1C,inactive
13,CCOCCCNc1c(CC)c(C)c(C#N)c2nc3ccccc3n12,"inconclusive [inhibitor, single point]"
14,COc1ccc(/C=C/c2cccc[n+]2C)c(O)c1,active: 8.91 µM
15,Cc1ccc(OCC(=O)NNC(=O)CCC(=O)Nc2ccc(C)cc2C)cc1,"inconclusive [inhibitor, single point]"
16,CC(=O)c1ccc(NC(=O)N2CCN(c3cccc(Cl)c3)CC2)cc1,active: 12.6 µM
17,COc1ccc(C(F)(F)F)cc1N/C=C\c1nnnn1-c1ccccc1,"inconclusive [inhibitor, partial curve, poor fit]"
18,CCOC(=O)c1c(NC(=O)Cn2cc([N+](=O)[O-])cn2)sc2c1CCC2,"inconclusive [inhibitor, partial curve]"
19,COc1ccccc1NS(=O)(=O)c1ccc(C(=O)N2CCN(c3ccccc3O)CC2)cc1,"inconclusive [inhibitor, partial curve]"
20,CC[C@]12c3[nH]c4ccc(OC)cc4c3CCN1C(=O)C(CC(=O)NCCCN(C)C)C[C@@H]2C(=O)N1CCN(C(=O)c2ccco2)CC1 (stereo not given in full),inactive
21,COc1cc(/C=C(\C#N)c2ccccn2)ccc1OCc1ccccc1,"inconclusive [inhibitor, partial curve]"
22,CC1=CC(=O)C(C(C)=Nc2ccccc2Cl)C(=O)O1 (stereo not given),"inconclusive [inhibitor, partial curve]"
